The whole screen tested about 110,000 compounds, of which about 40 (0.04%) were called active. This list was built around the results that the source calls inconclusive (neither active nor inactive); the mix of calls is not that of the screen. Calls follow the shape of the dose curve; as a rule, active = well fitted curve in the direction sought with a large enough effect in the signal ratio (not every such curve was filed as active); inconclusive = small, poorly fitted or top-dose-only effect, or a change in a side signal; inactive = flat fitted curve, though single readings scatter; the % refers to the signal ratio. Where the call is inconclusive, the potency comes from a doubtful curve fit.
Assay: IkB Signaling;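 as to IkBa stabilization activation: 0% = basal untreated cells and 100% = reference inhibitor full response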
Settings: ABC-DLBCL IkBa-CBG/CBR dual luciferase ratio (green luciferase fused to IkBa over red control in OCI-Ly3 lymphoma cells), 4 h; IkBa stabilization activation: at 57.1 µM (top of the series), scaled: untreated 0%, proteasome inhibitor 100% unless noted
Procedure, shortened: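 In this assay, an IκBα–CBG68 fusion accumulates when IKK-driven degradation is blocked; native CBR normalizes for cell number. OCI-Ly3 cells were treated 4 h with compound and doxycycline, then green and red light read after Chroma-Glo addition.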
Potency is read from the fitted curve at half-maximal effect.

Row | Structure (SMILES) | IkBa stabilization activation | Potency
1 | Cc1ccc(N2C(=O)CC(c3ccccc3F)C3=C2COC3=O)cc1Cl (stereo not given) | inconclusive: 0.143% [signal inhibitor] | 
2 | O=C(NCCc1c[nH]c2ccccc12)c1ccc(S(=O)(=O)NCc2ccco2)cc1 | inconclusive: 5.88% [signal inhibitor] | 
3 | Cc1cccc(S(=O)(=O)Nc2cccc(-c3ccc(N4CCCCC4)nn3)c2)c1 | inactive | 
4 | CC(C)c1ccc(C2Sc3ccccc3NC3=C2C(=O)c2ccccc23)cc1 (stereo not given) | inconclusive: 13.1% [signal inhibitor] | 
5 | COc1ccc(Nc2oc(-c3ccc(COc4cccc(C)c4)o3)nc2C#N)cc1 | inactive | 
6 | COC(=O)c1cc(NC(=O)CCc2c(C)nc3c(c(C)nn3C(C)(C)C)c2C)cc(C(=O)OC)c1 | inactive | 
7 | CCSc1nnc(NC(=O)CSc2nnc(Cc3cccn3C)n2CCc2ccccc2)s1 | inactive | 
8 | COC(=O)COc1ccc(C2C(C(=O)OC)=C(C)NC3=C2C(=O)c2ccccc23)cc1OC (stereo not given) | inconclusive: -2.73% [signal inhibitor] | 
9 | COc1ccc(CCNC(=O)Cc2c(C)c3cc4c(C(C)(C)C)coc4c(C)c3oc2=O)cc1OC | inconclusive: 1.04% [signal inhibitor] | 
10 | Cc1ccc2c(c1)cc1c(=O)n(Cc3cccc(Cl)c3)nc(C)n12 | inconclusive: 0.83% [signal inhibitor] | 
11 | O=C(O)CN(CCN(CC(=O)O)CC(=O)O)CC(=O)O.[Mn] | inactive: -0.147% [at 11.4 µM, scaled: untreated 0%, proteasome inhibitor 100%] | 
12 | O=C(CSC1=NCCS1)Nc1nc(-c2ccccc2)cs1 | inconclusive: -1.23% [signal inhibitor] | 
13 | O=C(Nc1cc(Cl)ccc1Cl)c1cc(S(=O)(=O)NCCc2ccccc2)ccc1F | inconclusive: 3.88% [signal inhibitor] | 
14 | Cc1noc(C)c1COC(=O)c1cc(C)n(-c2ccccc2)c1C | inactive | 
15 | Cc1ccc(C(=O)N(Cc2ccco2)Cc2sccc2C)cc1 | inconclusive: 2.41% [signal inhibitor] | 
16 | O=C(COc1ccccc1F)Nc1ccccc1C(=O)OCc1cc(=O)n2nc(C3CC3)sc2n1 | inconclusive: 0.983% [signal inhibitor] | 
17 | O=C(NCc1ccc(Cl)cc1)c1cc2c(s1)-c1ccccc1SC2 | inconclusive: 9.12% [signal inhibitor] | 
18 | COc1ccc(C(=O)Nc2cccc(-c3cn4ccsc4n3)c2)cc1OC | inconclusive: 4.3% [signal inhibitor] | 
19 | CS(=O)(=O)c1ccc([C@H](O)[C@H](CF)NC(=O)C(Cl)Cl)cc1 | inactive | 
20 | CCCN1CCN(CCCNC(=O)c2ccc3c(c2)sc2nc(-c4ccc(OC)cc4)cn23)CC1 | inconclusive: 7.16% [signal inhibitor] | 
21 | Oc1c(/C=N/c2ncn[nH]2)ccc2ccccc12 | inactive | 
22 | Cc1ccccc1Cn1c(CN2CCC(C(=O)NCc3cccnc3)CC2)cc2ccccc21 | inconclusive: 0.749% [signal inhibitor] | 
23 | CCOC(=O)C1CCN(C(=O)Cn2nc(C)n3c(cc4sccc43)c2=O)CC1 | inconclusive: 2.59% [signal inhibitor] | 
24 | Cn1c(SCC(=O)N2CCOCC2)ncc(C(=O)Nc2ccccc2)c1=O |  | inconclusive: 25100 nM [signal activator]

Row | Structure (SMILES) | IkBa stabilization activation | Potency
25 | COc1ccccc1-n1c(CNC(=O)c2ccco2)nnc1SCC(=O)Nc1cc(C)ccc1C |  | inconclusive: 1000 nM [signal inhibitor, full curve]
26 | c1ccc(-c2cc3c(N4CCOCC4)ncnc3s2)cc1 | inconclusive: -4.4% [signal inhibitor] | 
27 | CC1CCN(c2nc3c(S(=O)(=O)c4ccccc4)nnn3c3ccc(Cl)cc23)CC1 | inconclusive: 2.26% [signal inhibitor] | 
28 | COc1cccc(Cc2nc3ccccc3nc2SCC(=O)NCCc2ccccc2)c1 | inconclusive: -0.0217% [signal inhibitor] | 
29 | COc1ccc(C2C=C(c3ccc(F)cc3)Nc3nc(-c4ccc(Cl)cc4)nn32)cc1 (stereo not given) | inconclusive: 9.58% [signal inhibitor] | 
30 | Cc1ccc(-c2nc3ccccc3[nH]2)cc1NC(=O)COc1ccccc1[N+](=O)[O-] | inconclusive: -4.28% [signal inhibitor] | 
31 | COC(=O)C1=C(C)NC(C)=C(C(=O)OC)C1c1cn(-c2ccccc2)nc1-c1ccco1 | inactive | 
32 | COc1ccccc1NC(=O)NCCCN1CCN(c2ccc(F)cc2)CC1 | inconclusive: -1.98% [signal inhibitor] | 
33 | COc1ccc(-n2nc3c(N4CCC(C(=O)NCc5cccc(F)c5)CC4)nnc(C)c3c2C)cc1 | inactive | 
34 | O=C(Nc1ccc2nc(-c3cccs3)c(-c3cccs3)nc2c1)N1CCOCC1 | inconclusive: 2.74% [signal inhibitor] | 
35 | CC(=O)c1ccc(NC(=O)Cn2nc(C(F)(F)F)c3c2CCC3)cc1 | inconclusive: 3.78% [signal inhibitor] | 
36 | Cc1ccc(CSc2c(C)cnc3c2c(=O)n(C)c(=O)n3C)cc1 | inconclusive: 0.374% [signal inhibitor] | 
37 | O=C(CCn1c(=O)oc2ccccc21)N1CCN(C(c2ccccc2)c2ccccc2)CC1 | inconclusive: 2.37% [signal inhibitor] | 
38 | CCOC(=O)C1=C(CN2CCN(c3ccc(Cl)cc3)CC2)NC(=O)NC1c1ccc(OC)cc1 (stereo not given) | inconclusive: 1.13% [signal inhibitor] | 
39 | COc1cccc2sc(NC(=O)c3ccc4c(c3)OCCO4)nc12 | inconclusive: 12.3% [signal inhibitor] | 
40 | CCCNC(=O)NC(=O)COC(=O)c1ccc(OC)c(S(=O)(=O)N2CCCc3ccccc32)c1 | inconclusive: 5.15% [signal inhibitor] | 
41 | CCCc1ccc(-c2ccc(F)c(N)c2)nc1 | inconclusive: 12.6% [signal inhibitor] | 
42 | Cc1ccc(Cl)cc1N1CCN(C(=O)Cn2cnc3onc(-c4ccc(F)cc4)c3c2=O)CC1 | inconclusive: 2.98% [signal inhibitor] | 
43 | COc1ccc(-c2cc3nc(C)c(CCC(=O)NCc4ccco4)c(C)n3n2)c(OC)c1 |  | inconclusive: 501 nM [signal inhibitor, full curve]
44 | COC(=O)c1ccc(CSc2ncnc3c2oc2ccccc23)o1 | inconclusive: 7.82% [signal inhibitor] | 
45 | COc1ccc(C(=O)CSc2nnc(COc3ccccc3)n2Cc2ccco2)cc1 | inconclusive: 0.243% [signal inhibitor] | 
46 | CS(=O)(=O)N1CCc2cc(-c3csc(NC(=O)Cc4cccs4)n3)ccc21 | inconclusive: 0.793% [signal inhibitor] | 
47 | C=CCn1c(-c2ccc(OC)c(OC)c2)cs/c1=N\c1ccccn1 | inconclusive: 2.13% [signal inhibitor] | 
48 | COc1cc(NC(=O)c2ccc(COc3ccccc3Br)o2)cc(OC)c1OC | inconclusive: 2.43% [signal inhibitor] | 

Row | Structure (SMILES) | IkBa stabilization activation | Potency
49 | COc1ccccc1C(=O)N1CCN(C(=O)c2ccncc2)CC1 | inactive | 
50 | CC(C)(C)c1cnnn1-c1ccc(NC(=O)c2ccc(Br)o2)cc1 | inconclusive: 8.76% [signal inhibitor] | 
51 | Cc1ccc(CNC(=O)CCNS(=O)(=O)c2ccc3c(c2)oc(=O)n3C)cc1 | inconclusive: 0.435% [signal inhibitor] | 
52 | CCOC(=O)N1CCC(NC(=O)c2cccc3c2C(=O)N(c2ccc(OC)cc2)C3)CC1 | inactive | 
53 | Cc1oc(-c2cccc(Cl)c2)nc1CN1CCC(C(=O)NC(C)C)CC1 | inactive | 
54 | Cc1cc(C)c(S(=O)(=O)Nc2ccc3oc(C)c(C(=O)OC(C)C)c3c2)cc1C | inconclusive: 13.6% [signal inhibitor] | 
55 | CC1(Cc2cn(CCC#N)c3ccccc23)OCCO1 | inactive | 
56 | CN(Cc1ccccc1)c1nc2c(c(=O)[nH]c(=O)n2C)n1CCOc1ccccc1 | inactive | 
57 | COc1cc(OC)cc(-c2nnc(SCC(=O)N(C(C)C)C(C)C)o2)c1 | inactive | 
58 | COc1cccc(Nc2nnc(-c3cc4ccc(O)cc4oc3=O)s2)c1 | inconclusive: 11.3% [signal inhibitor] | 
59 | Cc1nn(C)c2c1c(C(F)(F)F)cc(=O)n2CC(=O)NCc1ccc(OC(C)C)cc1 | inconclusive: 3.4% [signal inhibitor] | 
60 | CCOC(=O)c1ccccc1NC(=O)c1c(F)c(F)c(F)c(F)c1F | inconclusive: -2.2% [signal inhibitor] | 
61 | CC(CC(=O)O)(CC(=O)O)c1ccccc1 | inactive: 2.93% [at 11.4 µM, scaled: untreated 0%, proteasome inhibitor 100%] | 
62 | Nc1nc(N2CCOCC2)nc2ccccc12 | inactive | 
63 | CN1CCc2cc(O)c(O)cc2[C@H](c2ccccc2)C1 | inactive | 
64 | CC(NC(=O)c1ccccc1NC(=O)c1ccco1)C(=O)O (stereo not given) | inactive | 
65 | C[N+]1(C)CCO[C@](O)(c2ccccc2)C1 | inactive: 1.99% [at 11.4 µM, scaled: untreated 0%, proteasome inhibitor 100%] | 
66 | COc1cc(Cn2c(=O)oc3ccc(C)cc32)ccc1OCCC(C)C | inconclusive: 0.795% [signal inhibitor] | 
67 | CC(C)(C)c1ccc(S(=O)(=O)N2CCC(Oc3ccc(-n4cnnn4)cc3)CC2)cc1 | inconclusive: 0.83% [signal inhibitor] | 
68 | COc1cccc(C(c2nnnn2Cc2ccc(F)cc2)N2CCC(C(N)=O)CC2)c1OC (stereo not given) | inconclusive: 10.1% [signal inhibitor] | 
69 | Cc1cc(Nc2ccc(Br)cc2)n2nc(-c3ccccc3C)nc2n1 | inconclusive: 3.48% [signal inhibitor] | 
70 | Oc1ccc(-c2nc(-c3ccc(F)cc3)c(-c3ccncc3)[nH]2)cc1 | inconclusive: 0.425% [signal inhibitor] | 

Source: PubChem BioAssay AID445 (National Center for Advancing Translational Sciences (NCATS), 2006)
